Results reported in US20230061378A1 (SUZHOU ALPHAMAB, published 2023).
Changes are numbered by the printed parent chain.

B1: iPT12n42Fc (Fc fusion)
chain: QVQLQESGGGSVQAGGSLRLSCAASGYTYSSYCMGWFRQAPGKEREGVAGIESDGSTSYADSVKGRFSISKDNVKNTLYLQMNTLKPEDTGIYYCAVQSPLPGGSWYSLCGGADFGYWGQGTQVTVSSQVQLQESGGGSVQAGGSLRLSCAASGYTYSDVCMGWFRQAPGKEREGVAAIDSVGNTNYADSVKGRFTISKDNAKNTLYLQMNSLKPEDTAMYYCAAQRCLGWVPLVPHEYGFWGQGTQVTVSS[human IgG1 Fc cut from this listing]
B2: iPT12diFc (Fc fusion)
chain: QVQLQESGGGSVQAGGSLRLSCAASGYTYSSYCMGWFRQAPGKEREGVAGIESDGSTSYADSVKGRFSISKDNVKNTLYLQMNTLKPEDTGIYYCAVQSPLPGGSWYSLCGGADFGYWGQGTQVTVSSQVQLQESGGGSVQAGGSLRLSCAASGYTYSSYCMGWFRQAPGKEREGVAGIESDGSTSYADSVKGRFSISKDNVKNTLYLQMNTLKPEDTGIYYCAVQSPLPGGSWYSLCGGADFGYWGQGTQVTVSS[human IgG1 Fc cut from this listing]
notes: also called iPTI2diFc
B3: iPT15n7Fc (Fc fusion)
chain: QVQLQESGGGSVQAGGSLRLSCAASGYTYGSYCMAWFRQAPGKEREGVAGVDSDGTTRYADSVKGRFTISKDNAENTLYLQMNSLKPEDTSMYYCAAGVCGTGGSWYEGDAGLFMYEFAYWGQGTQVTVSSQVQLQESGGGSVQPGGSLRLSCAASGYTYSSYCMGWFRQAPGKEREGVAAIDSDGRTSYADFVKGRFTISKDNAKNTLYLQMNSLKPEDTAKYYCATEQRIGGSWYDLCGGADFGYWGQGTQVTVSS[human IgG1 Fc cut from this listing]
notes: also called iPT1507Fc
B4: iPT7n15Fc (Fc fusion)
chain: QVQLQESGGGSVQPGGSLRLSCAASGYTYSSYCMGWFRQAPGKEREGVAAIDSDGRTSYADFVKGRFTISKDNAKNTLYLQMNSLKPEDTAKYYCATEQRIGGSWYDLCGGADFGYWGQGTQVTVSSQVQLQESGGGSVQAGGSLRLSCAASGYTYGSYCMAWFRQAPGKEREGVAGVDSDGTTRYADSVKGRFTISKDNAENTLYLQMNSLKPEDTSMYYCAAGVCGTGGSWYEGDAGLFMYEFAYWGQGTQVTVSS[human IgG1 Fc cut from this listing]
notes: also called iPT7n15Fe
B5: huPT7v1Fc (Fc fusion)
chain: QVQLVESGGGSVQAGGSLRLSCAASGYTYSSYCMGWFRQAPGKEREGVAAIDSDGRTSYADFVKGRFTISKDNSKNTLYLQMNSLRAEDTAVYYCATEQRIGGSWYDLCGGADFGYWGQGTLVTVSS[human IgG1 Fc cut from this listing]
notes: also called huPT7V1-ld-Fc
B6: huPT7v11Fc (Fc fusion)
chain: B5 chain with S11L, A14P, E44G, R45L, R86K, A87P
notes: also called huPT7V11-ld-Fc; huPT7v11Fe
B7: iPT12n15Fc (Fc fusion)
chain: QVQLQESGGGSVQAGGSLRLSCAASGYTYSSYCMGWFRQAPGKEREGVAGIESDGSTSYADSVKGRFSISKDNVKNTLYLQMNTLKPEDTGIYYCAVQSPLPGGSWYSLCGGADFGYWGQGTQVTVSSQVQLQESGGGSVQAGGSLRLSCAASGYTYGSYCMAWFRQAPGKEREGVAGVDSDGTTRYADSVKGRFTISKDNAENTLYLQMNSLKPEDTSMYYCAAGVCGTGGSWYEGDAGLFMYEFAYWGQGTQVTVSS[human IgG1 Fc cut from this listing]
B8: iPT15n42Fc (Fc fusion)
chain: QVQLQESGGGSVQAGGSLRLSCAASGYTYGSYCMAWFRQAPGKEREGVAGVDSDGTTRYADSVKGRFTISKDNAENTLYLQMNSLKPEDTSMYYCAAGVCGTGGSWYEGDAGLFMYEFAYWGQGTQVTVSSQVQLQESGGGSVQAGGSLRLSCAASGYTYSDVCMGWFRQAPGKEREGVAAIDSVGNTNYADSVKGRFTISKDNAKNTLYLQMNSLKPEDTAMYYCAAQRCLGWVPLVPHEYGFWGQGTQVTVSS[human IgG1 Fc cut from this listing]
notes: also called iPT15042Fc
B9: huPT42v4Fc (Fc fusion)
chain: QVQLVESGGGLVQPGGSLRLSCAASGYTYSDVCMGWFRQAPGKGLEGVAAIDSVGNTNYADSVKGRFTISRDNSKNTLYLQMNSLRAEDTAVYYCAAQRCLGWVPLVPHEYGYWGQGTLVTVSS[human IgG1 Fc cut from this listing]
notes: also called huPT42V4-ld-Fc
B10: huPT42v6Fc (Fc fusion)
chain: B9 chain with R71K
notes: also called huPT42V6-ld-Fc
B11: iPT42n7Fc (Fc fusion)
chain: QVQLQESGGGSVQAGGSLRLSCAASGYTYSDVCMGWFRQAPGKEREGVAAIDSVGNTNYADSVKGRFTISKDNAKNTLYLQMNSLKPEDTAMYYCAAQRCLGWVPLVPHEYGFWGQGTQVTVSSQVQLQESGGGSVQPGGSLRLSCAASGYTYSSYCMGWFRQAPGKEREGVAAIDSDGRTSYADFVKGRFTISKDNAKNTLYLQMNSLKPEDTAKYYCATEQRIGGSWYDLCGGADFGYWGQGTQVTVSS[human IgG1 Fc cut from this listing]
B12: huPT15v11cFc (Fc fusion)
chain: QVQLVESGGGLVQPGGSLRLSCAASGYTYGSYCMAWFRQAPGKEREGVAGVDSDGTTRYADSVKGRFTISRDNSENTLYLQMNSLKPEDTAVYYCAAGVCGTGGSWYEGDAGLFMYEFAYWGQGTLVTVSS[human IgG1 Fc cut from this listing]
notes: also called huPT15V11c-ld-Fc
B13: huPT15v7cFc (Fc fusion)
chain: B12 chain with R71K, K86R, P87A
notes: also called huPT15V7c-ld-Fc
B14: iPT7n22Fc (Fc fusion)
chain: QVQLQESGGGSVQPGGSLRLSCAASGYTYSSYCMGWFRQAPGKEREGVAAIDSDGRTSYADFVKGRFTISKDNAKNTLYLQMNSLKPEDTAKYYCATEQRIGGSWYDLCGGADFGYWGQGTQVTVSSQVQLQESGGGSVQAGGSLQLSCAATDITYSRCMAWFRQAPGKSREGVAALSTNGGSTWYADSVKGRFTISRDGAKNTIYLQMRSLKPEDTAMYYCADSSFFSCRDCSGGDCPRSRDYKYWGQGTQVTVSS[human IgG1 Fc cut from this listing]
B15: iPT15n12Fc (Fc fusion)
chain: QVQLQESGGGSVQAGGSLRLSCAASGYTYGSYCMAWFRQAPGKEREGVAGVDSDGTTRYADSVKGRFTISKDNAENTLYLQMNSLKPEDTSMYYCAAGVCGTGGSWYEGDAGLFMYEFAYWGQGTQVTVSSQVQLQESGGGSVQAGGSLRLSCAASGYTYSSYCMGWFRQAPGKEREGVAGIESDGSTSYADSVKGRFSISKDNVKNTLYLQMNTLKPEDTGIYYCAVQSPLPGGSWYSLCGGADFGYWGQGTQVTVSS[human IgG1 Fc cut from this listing]
B16: iPT22n7Fc (Fc fusion)
chain: QVQLQESGGGSVQAGGSLQLSCAATDITYSRCMAWFRQAPGKSREGVAALSTNGGSTWYADSVKGRFTISRDGAKNTIYLQMRSLKPEDTAMYYCADSSFFSCRDCSGGDCPRSRDYKYWGQGTQVTVSSQVQLQESGGGSVQPGGSLRLSCAASGYTYSSYCMGWFRQAPGKEREGVAAIDSDGRTSYADFVKGRFTISKDNAKNTLYLQMNSLKPEDTAKYYCATEQRIGGSWYDLCGGADFGYWGQGTQVTVSS[human IgG1 Fc cut from this listing]
B17: iPT7n42Fc (Fc fusion)
chain: QVQLQESGGGSVQPGGSLRLSCAASGYTYSSYCMGWFRQAPGKEREGVAAIDSDGRTSYADFVKGRFTISKDNAKNTLYLQMNSLKPEDTAKYYCATEQRIGGSWYDLCGGADFGYWGQGTQVTVSSQVQLQESGGGSVQAGGSLRLSCAASGYTYSDVCMGWFRQAPGKEREGVAAIDSVGNTNYADSVKGRFTISKDNAKNTLYLQMNSLKPEDTAMYYCAAQRCLGWVPLVPHEYGFWGQGTQVTVSS[human IgG1 Fc cut from this listing]
B18: iPT42n12Fc (Fc fusion)
chain: QVQLQESGGGSVQAGGSLRLSCAASGYTYSDVCMGWFRQAPGKEREGVAAIDSVGNTNYADSVKGRFTISKDNAKNTLYLQMNSLKPEDTAMYYCAAQRCLGWVPLVPHEYGFWGQGTQVTVSSQVQLQESGGGSVQAGGSLRLSCAASGYTYSSYCMGWFRQAPGKEREGVAGIESDGSTSYADSVKGRFSISKDNVKNTLYLQMNTLKPEDTGIYYCAVQSPLPGGSWYSLCGGADFGYWGQGTQVTVSS[human IgG1 Fc cut from this listing]

Tests used:
[1] = biological target: T1, pertussis toxin (PT) (Bordetella pertussis); test: BLI, tetravalent Fc fusion on AHC biosensor, PTpuri 6.25-100 nM in solution
T1 construct: also called recombinant pertussis toxin protein; PT toxin

[2] = biological target: T1, pertussis toxin (PT); test: cell-based or functional assay
[3] = biological target: T1, pertussis toxin (PT); test: ELISA, PT coated 0.3 µg/well, anti-human IgG Fc-HRP, four-parameter fit
[4] = biological target: T1, pertussis toxin (PT); test: cell-based or functional assay; remark: listed apart in the source

Binder | Kd [1] [nM] | koff [1] [s⁻¹] | kon [1] [M⁻¹ s⁻¹] | Concentration for completely neutralizing PTToxin [2] [µg/mL] | concentration with partial neutralizing (CHO-K1 cells with PT toxin) [2] [µg/mL] | EC50 [3] [µg/mL] | Minimum neutralizing concentration (CHO-K1 cells with PT toxin) [4] [µg/mL]
B1 | 0.242 | 0.000129 | 535000 | 0.333 |  |  | 
B2 | 0.267 | 8.89e-05 | 334000 |  | 0.333 |  | 
B3 | < 0.001 | < 1e-07 | 107000 |  | 5 |  | 
B4 |  | 5.47e-05 | 105000 | 0.1 |  |  | 
B5 |  |  |  |  |  | 0.0349 | < 0.5
B6 |  |  |  |  |  | 0.0333 | < 0.5
B7 | 0.263 | 0.000149 | 567000 | 0.111 |  |  | 
B8 | 0.167 | 0.000121 | 722000 | 100 |  |  | 
B9 |  |  |  |  |  | 0.0264 | ~32
B10 |  |  |  |  |  | 0.0256 | ~16
B11 | 0.267 | 0.000171 | 641000 | 0.05 |  |  | 
B12 |  |  |  |  |  | 0.0205 | < 1
B13 |  |  |  |  |  | 0.0221 | < 1
B14 | 0.223 | 0.000156 | 701000 | 5 |  |  | 
B15 | 0.183 | 0.000112 | 614000 | 0.111 |  |  | 
B16 | 0.24 | 0.000138 | 573000 | 100 |  |  | 
B17 | 0.301 | 0.000182 | 607000 |  | 2.5 |  | 
B18 | 0.237 | 0.000134 | 564000 | 0.333 |  |  | 
